Hit rate of the full screen: of about 130,000 compounds, about 550 (0.42%) were called active. This list was built around the results that the source calls inconclusive (neither active nor inactive); the mix of calls is not that of the screen. Calls come from the whole dose curve; as a rule, active = well fitted inhibition curve with a large enough effect; inconclusive = small, poorly fitted or top-dose-only effect, or effect the other way; inactive = flat fitted curve, though single readings scatter. No potency is given beside an inconclusive call; the fits are too rough.
Assay: qHTS Assay for Inhibitors of the ERK Signaling Pathway using a Homogeneous Screening Assay; Stimulation with EGF; note: nearly all actives have a fitted effect of over 55% in size
Conditions: HEK293-V1b, EGF-stimulated phospho-ERK AlphaScreen
Outline: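 Concentration-response of compounds against EGF-driven ERK phosphorylation in V1b-expressing HEK293 cells; 30 min preincubation, 5 min EGF, AlphaScreen detection; Normalized to DMSO basal and 25 nM EGF.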
With Oc1cccc2c(NC(=S)Nc3ccc(SC(F)F)cc3)cccc12 the Potency was inconclusive [inhibitor, single point]. With NC(=O)C1CCN(C2=C(NS(=O)(=O)c3ccc(Cl)cc3)C(=O)c3ccccc3C2=O)CC1 the Potency was inconclusive [inhibitor, partial curve]. With Cc1ccc(-c2nc3ccc([N+](=O)[O-])cc3[nH]2)cc1 the Potency was inconclusive [inhibitor, single point]. In the case of CCOc1ccc(C2=C(C=C(C#N)C#N)C(c3ccccc3)c3ccccc3O2)cc1 (centres undefined), the Potency is reported as inconclusive [inhibitor, single point]. In the case of Cc1[nH]c2ccccc2c1C(=O)/C=C/c1ccccc1Cl, the Potency is reported as inconclusive [inhibitor, single point]. For N#CC(C(=O)NC1CCCCC1)c1nc2ccccc2nc1N1CCN(c2ccccc2F)CC1 (centres undefined), the Potency was inconclusive [inhibitor, single point]. With CC(Nc1cc(N2CCN(S(=O)(=O)N(C)C)CC2)ccc1[N+](=O)[O-])c1ccccc1 (centres undefined) the Potency was inconclusive [inhibitor, partial curve]. With CCN1/C(=C\C=C2\C(=O)N(c3ccccc3)C(=S)N2C)Sc2ccccc21 the Potency was inconclusive [inhibitor, full curve]. With O=C(NC1=C(Nc2ccc(F)cc2)C(=O)c2ccccc2C1=O)c1ccc(Cl)cc1 the Potency was inconclusive [inhibitor, full curve]. In the case of CC(C)NS(=O)(=O)c1ccc(CCC(=O)N2CCC(C(N)=O)CC2)cc1, the Potency is reported as inconclusive [inhibitor, single point]. With Oc1c(N=NC(=S)Nc2ccccc2F)c2ccccc2n1Cc1ccccc1 the Potency was inconclusive [inhibitor, partial curve]. With CC(=O)OC1CCC2(C)C(CCC3(C)C2C(=O)C=C2C4CC(C)(C(=O)OCCN5CCCCC5)CCC4(C)CCC23C)C1(C)C (centres undefined) the Potency was “inactive”. With CCCC(=O)OCCNc1cc(Sc2nc3ccccc3[nH]2)c2nonc2c1[N+](=O)[O-] the Potency was inconclusive [inhibitor, single point]. For CC(=O)c1c(C)[nH]c(C(=O)CN2C(=O)NC(C)(CCC(C)C)C2=O)c1C (centres undefined), the Potency was inconclusive [inhibitor, single point]. For COCCn1c(=O)c(-c2cccs2)nc2cnc(Oc3ccc(OC)cc3)nc21, the Potency was inconclusive [activator, partial curve, poor fit]. For CSc1n[nH]c2nc3c(c(=O)n12)C1(CCCCC1)Cc1ccccc1-3, the Potency was “inactive”. For Cc1ccc(C(=O)OCC(=O)NCc2cccs2)cc1S(=O)(=O)N1CCOCC1, the Potency was inconclusive [inhibitor, single point]. With O=C(NNc1c2ccccc2nc2ccccc12)c1ccc(O)cc1 the Potency was inconclusive [inhibitor, partial curve]. For O=C(CSc1n[nH]c(=O)[nH]c1=O)N1CCCCCC1, the Potency was “inactive”. With CC1(OC(=O)C2CCCC2)C(=O)C=C2C=C(c3ccsc3)N(C3CCCCC3)C=C2C1=O (centres undefined) the Potency was inconclusive [inhibitor, partial curve]. In the case of Cc1cccc(-c2cc(=O)c3cc(Br)ccc3o2)c1, the Potency is reported as “inactive”. For Cc1ccccc1CNC(=O)c1cc(COc2ccc(F)cc2F)on1, the Potency was inconclusive [inhibitor, single point]. With Cc1cc(NC(=O)COC(=O)C2=COCCO2)c([N+](=O)[O-])cc1C the Potency was inconclusive [inhibitor, single point]. With CCN(CC)S(=O)(=O)c1ccc(N2CCCC2)c(C(=O)OCC(=O)Nc2cc(C)on2)c1 the Potency was inconclusive [inhibitor, single point]. With COc1ccc(OC)c(NC(=O)Nc2cc(C(=O)O)ccc2C)c1 the Potency was inconclusive [activator, full curve]. In the case of Cc1csc2ncnc(N3CCN(C(=O)Nc4ccc(OC(F)(F)F)cc4)CC3)c12, the Potency is reported as active: 28.2 µM. In the case of Cc1cc(=O)cc2oc3cc(N)c(-c4c(C)cc(O)cc4O)c(C)c3nc1-2, the Potency is reported as “inactive”. In the case of CCOC(=O)N1CCC(NC(=O)c2ccc3c(Cl)c4c(nc3c2)CCCC4)CC1, the Potency is reported as inconclusive [inhibitor, partial curve]. With COc1ccc2cc(-c3[nH]ncc3CNCCn3nc(C)cc3C)ccc2c1 the Potency was inconclusive [inhibitor, single point]. With S=C(NCc1ccco1)N1CCN(c2nc(-c3ccc(Cl)cc3)cs2)CC1 the Potency was inconclusive [inhibitor, full curve]. For Cc1ccc2nc3c(nc2c1C)C(O)=C3O, the Potency was inconclusive [inhibitor, single point]. For N=C1c2ccccc2CN1c1ccc(N2CCOCC2)c(S(=O)(=O)Nc2ccc(Cl)cc2)c1, the Potency was “inactive”. In the case of O=C(NNc1nc2cc3c(cc2s1)OCO3)c1ccccc1, the Potency is reported as inconclusive [inhibitor, single point]. With O=C(c1ccco1)N1CCN(C(=O)N2CCCC2)CC1 the Potency was inconclusive [activator, partial curve]. With CCCCc1nc2sc3c(SCCN(C)C)ncnc3c2c2c1CCC2 the Potency was inconclusive [inhibitor, partial curve]. In the case of Cc1ccc(C2=NC3(CCCCC3)N=C2SCC(=O)Nc2ccc3c(c2)OCCO3)cc1, the Potency is reported as inconclusive [inhibitor, partial curve]. In the case of O=C(Nc1ccc(Cl)c(Cl)c1)Nc1cc(C(=O)NC2CC2)ccc1Cl, the Potency is reported as active: 28.2 µM. In the case of C[C@@H]1CC[C@H]2[C@H](C)[C@H]3CC[C@H]4C5[C@@H](O)CC6=CC(=O)CC[C@]6(C)[C@H]5C[C@H]4C3C(=O)N2C1 (some centres undefined), the Potency is reported as “inactive”. With Cc1cc(C)c(C)c(OCC(=O)O/N=C(\N)c2cccnc2)c1 the Potency was inconclusive [activator, partial curve, poor fit]. In the case of CC(C)(C)c1ccc(NC(=O)N2CCN(c3ccc([N+](=O)[O-])cn3)CC2)cc1, the Potency is reported as inconclusive [inhibitor, partial curve]. In the case of COc1ccc(NC(=S)N(CCc2c(C)[nH]c3ccc(C)cc23)Cc2ccco2)cc1, the Potency is reported as inconclusive [inhibitor, partial curve]. In the case of CCCCCCC(=O)Oc1cccc(N2C(=O)C3CCCCC3C2=O)c1 (centres undefined), the Potency is reported as inconclusive [activator, full curve, poor fit]. With COc1ccc(-c2csc(N3N=C(C)C(C)C3=O)n2)cc1 (centres undefined) the Potency was inconclusive [inhibitor, single point]. For COc1ccc2cc(/C=C3\SC(=S)NC3=O)c(N3CCOCC3)nc2c1, the Potency was inconclusive [inhibitor, single point]. In the case of Cc1[nH]c2ccccc2c1SCc1nnc(SCc2ccc(Cl)cc2)n1C, the Potency is reported as inconclusive [inhibitor, single point]. For N#Cc1c(N)nc2c(c1-c1ccc3c(c1)OCO3)CCc1ccccc1-2, the Potency was inconclusive [activator, partial curve]. With COc1cccc(N2CC34C=CC(O3)C(C(=O)O)C4C2=O)c1 (centres undefined) the Potency was inconclusive [activator, single point]. With CC(c1ccccc1)N1C(=O)/C(=C/c2ccncc2)SC1=S (centres undefined) the Potency was active: 22.4 µM. For CC(=O)c1ccc(NC(=O)CC2Nc3cccc4cccc(c34)NC2=O)cc1 (centres undefined), the Potency was inconclusive [inhibitor, partial curve]. For COC(=O)[C@@]1(Cc2ccc(OC)cc2)[C@H]2c3cc(C(=O)N4CCCC4)n(CCc4ccccn4)c3C[C@H]2CN1C(=O)c1ccccc1, the Potency was “inactive”. For O=[N+]([O-])c1nn(-c2ccc3c(c2)OCCO3)n(O)c1=NC1CCN(Cc2ccccc2)CC1, the Potency was inconclusive [inhibitor, single point]. In the case of Cc1cc(Cl)ccc1NC(=S)N1CCN(C(=O)C2CCCO2)CC1 (centres undefined), the Potency is reported as inconclusive [activator, partial curve]. In the case of CCN(CC)CCNS(=O)(=O)c1ccc(C(=O)NN)cc1, the Potency is reported as inconclusive [inhibitor, partial curve]. For CCOC(=O)c1ccc(NC(=O)CSc2ccc(-c3ccncc3)nn2)cc1, the Potency was inconclusive [inhibitor, partial curve]. In the case of CCN=C1SC(CC(=O)NC(C)c2ccccc2)C(=O)N1CC (centres undefined), the Potency is reported as “inactive”. For COc1ccc(CNC(=S)NC(C)CCc2ccccc2)cc1 (centres undefined), the Potency was inconclusive [inhibitor, partial curve]. With COCCN(C(=S)Nc1c(C)cc(C)cc1C)C(C)c1cccs1 (centres undefined) the Potency was inconclusive [inhibitor, partial curve]. In the case of CCc1ccc(Nc2ccc(S(=O)(=O)N3CCOCC3)cc2[N+](=O)[O-])cc1, the Potency is reported as inconclusive [inhibitor, single point]. In the case of COc1ccc(CC2(C)OC(c3ccc(Cl)cc3)=NN2C(C)=O)cc1 (centres undefined), the Potency is reported as “inactive”. For NCCc1ccc(O)c(O)c1, the Potency was inconclusive [inhibitor, single point]. For CNC(=S)/N=C/NOCc1ccc(Cl)cc1Cl, the Potency was inconclusive [inhibitor, single point]. For O=C(Nc1nc(-c2ccc(Cl)cc2)cs1)NC1CCCCC1, the Potency was inconclusive [inhibitor, single point]. With COc1ccc(CN2C(=O)/C(=C/c3ccc(-c4ccc(Cl)c(C(=O)O)c4)o3)SC2=S)cc1 the Potency was “inactive”. For C[C@H](N=C1NS(=O)(=O)c2ccccc21)C(=O)OCc1cc([N+](=O)[O-])cc2c1OCOC2, the Potency was inconclusive [inhibitor, partial curve, poor fit].
Potency is the fitted concentration of half-maximal effect; tags give direction and shape of the fitted curve.
